Measurements as given in PubChem BioAssay AID651820 (National Center for Advancing Translational Sciences (NCATS), 2012).
Screen size: about 340,000 compounds; about 12,000 (3.5%) were called active. Inconclusive means that the source gave no clear call. Such entries were picked first, then a sample of the others. Calls follow the shape of the dose curve; as a rule, active = well fitted inhibition curve with a large enough effect; inconclusive = small, poorly fitted or top-dose-only effect, or another doubt; inactive = no such curve, though single readings can be large or run the other way. No potency is given beside an inconclusive call; the fits are too rough.

experiment: qHTS Assay for Inhibitors of Hepatitis C Virus (HCV); settings: Huh7.5.1 HCVcc-Cre (HCVcc is cell-culture hepatitis C virus) infection, luciferase reporter, 44 h; activity change, negative = inhibition: at 41.8 µM (top of the series)
Summary of the method: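 1,000 cells/well; 4 h culture; + compound; + HCVcc-Cre (~0.5 moi); 44 h; luciferase substrate, RT 15 min; read 15 sec.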
% is scaled to controls: 0 for no effect and ±100 for the full control effect; potency is read from the fitted curve at half-maximal effect; tags tell the direction and shape of the fitted curve.

Row | Structure (SMILES) | Potency | activity change, negative = inhibition
1 | Fc1ccc(NC(=S)Nc2ccccc2OC(F)F)cc1Cl | inconclusive [inhibitor, single point] | –
2 | O=C(CCCCO)CCCCCCCC[C@H]1N[C@H](CO)[C@H](O)[C@@H]1O[C@@H]1O[C@H](CO)[C@@H](O)[C@H](O)[C@H]1O | inconclusive [inhibitor, single point] | –
3 | COc1ccc(S(N)(=O)=O)cc1C(N)=O | inactive | –
4 | Cc1ccc(-n2cccc2C(=O)NS(=O)(=O)c2ccc(C)cc2)cc1 | inactive | –
5 | COc1ccc(CNC(=O)c2cc(-c3ccncc3)nc3c(C)cc(C)cc23)cc1OC | inconclusive [inhibitor, single point] | –
6 | COc1cccc(/C=N/NC(=O)c2cc(-c3ccccn3)nc3ccccc23)c1O | active: 3.98 µM | –
7 | Cc1ccc(C)c(SCC(=O)NNC(=O)c2ccccc2)c1 | inconclusive [inhibitor, single point] | –
8 | CC(C)c1ccc(/C=C2\CC/C(=C\C=N\N(C)C)C2=O)cc1 | inactive | –
9 | COc1ccc(C(NC(=O)c2cccnc2)c2cc(Cl)c3cccnc3c2O)cc1OC (stereo unspecified) | active: 8.91 µM | –
10 | CCC1CCCCN1c1nc(-c2ccncc2)nc2ccccc12 (stereo unspecified) | active: 11.2 µM | –
11 | O=C(Nc1ccc(Cl)cc1)C1C2C=CC3(O2)C1C(=O)N(CCN1CCCCC1)C3C(=O)NC1CCCCC1 (stereo unspecified) | inconclusive [inhibitor, single point] | –
12 | COC(=O)C1=CN(Cc2cccs2)C=C(C(=O)OC)C1c1cccc(Cl)c1 | inconclusive [inhibitor, single point] | –
13 | CCOc1ccc(NC(=O)NCC2CCN(c3ccc(OC)cc3)C2)cc1 (stereo unspecified) | inconclusive [inhibitor, full curve, poor fit] | –
14 | Cc1ccc2oc(-c3ccc(C)c(NC(=S)NC(=O)c4cccs4)c3)nc2c1 | inconclusive [inhibitor, single point] | –
15 | Cc1ccc(C(=O)N2CCN(c3ncccn3)CC2)cc1 | inactive | –
16 | CC(C)(C)C(=O)Nc1nc2ccc(S(C)(=O)=O)cc2s1 | inactive | –
17 | CCCCC(=O)Nc1cccc(NC(=O)c2cccc(Br)c2)c1 | active: 11.2 µM | –
18 | Cc1ccc(OCCC(=O)N2CCN(c3ccc(O)cc3)CC2)cc1 | inconclusive [inhibitor, partial curve, poor fit] | –
19 | CCc1ccc(Nc2cc(C)nc3nc(C)nn23)cc1 | – | inactive: 1.26% [at 8.37 µM]
20 | Cc1cccc(OCCSc2nnc(-c3ccoc3C)n2C)c1 | inactive | –
21 | COCCNC(=O)c1ccc2c(c1)C(=O)c1ccccc1-2 | inconclusive [inhibitor, single point] | –
22 | Cc1cc(C)c(NC(=O)c2ccccc2C(=O)c2ccccc2)c(C)c1 | inactive | –
23 | COc1ccc(C(=O)N=c2sc3ccccc3n2C)cc1OC | inactive | –
24 | O=C1CC(NS(=O)(=O)c2ccc([N+](=O)[O-])cc2)CN1c1cccc(F)c1 (stereo unspecified) | inconclusive [inhibitor, partial curve] | –
25 | Cc1cc(NC2=CC(=O)C(=O)c3ccccc32)no1 | inconclusive [inhibitor, single point] | –
26 | Cc1cccc(N2CCN(CC(O)COc3ccccc3Cl)CC2)c1 (stereo unspecified) | inconclusive [inhibitor, single point] | –

Row | Structure (SMILES) | Potency | activity change, negative = inhibition
27 | Nc1c(N(Cc2ccccc2)C(=O)COc2ccc([N+](=O)[O-])cc2)c(=O)[nH]c(=O)n1Cc1ccccc1 | inconclusive [inhibitor, partial curve] | –
28 | Cc1cc(NC(=O)CCl)nn1C | inconclusive [inhibitor, single point] | –
29 | Cc1nc2ccccc2nc(C)c1=NOCC(=O)N(c1ccccc1)C(C)C | inactive | –
30 | Cc1cc(C)cc(N2C(=O)/C(=C\c3ccc(N4CCN(C)CC4)o3)C(=O)NC2=S)c1 | inconclusive [inhibitor, single point] | –
31 | CCCN1CCC(NC(=O)Nc2ccc([N+](=O)[O-])cc2)CC1 | inconclusive [inhibitor, partial curve] | –
32 | O=C(/C=C/c1ccco1)Nc1cccnc1 | inactive | –
33 | CCCCNC(=O)[C@@](CC)(ONc1ccccc1C(F)(F)F)c1cccc2ccccc12 | inactive | –
34 | O=C(COc1cccc2ccccc12)N1c2ccccc2CCc2ccccc21 | inconclusive [inhibitor, single point] | –
35 | CC(=O)N(CCCN(C)C)CCC(C)CCC=C(C)C (stereo unspecified) | inconclusive [inhibitor, single point] | –
36 | CCOc1ccc(NC(=O)CN(C)C(=O)CCCOc2ccc(Br)cc2)cc1OCC | inconclusive [inhibitor, full curve] | –
37 | CC1CC2(O)c3no[n+]([O-])c3CCC2N1O (stereo unspecified) | inactive | –
38 | CCOn1c(-n2nc(C)cc2C)nc2ccccc2c1=O | inactive | –
39 | COc1ccccc1CNc1ncnc2cc(Cl)ccc12 | inconclusive [inhibitor, partial curve, poor fit] | –
40 | Cc1ccc(NC(=O)CSc2nnc(-c3cccs3)n2Cc2ccco2)cc1 | inconclusive [inhibitor, single point] | –
41 | O=C(Cc1ccccc1F)Nc1ccc(S(=O)(=O)Nc2ncccn2)cc1 | inactive | –
42 | O=C(COc1ccc2c(-c3ccccc3)cc(=O)oc2c1)NCCCN1CCOCC1 | inactive | –
43 | COc1ccc(Cn2c3nc4ccccc4nc3c3c(=O)n(Cc4ccco4)c(C)nc32)cc1 | inconclusive [inhibitor, single point] | –
44 | CC(C)CCNC(=O)C(CC(C)C)N(Cc1ccc2c(c1)OCO2)C(=O)c1snc(C(N)=O)c1N (stereo unspecified) | inconclusive [inhibitor, single point] | –
45 | CN=C1S/C(=C\c2ccc(N3CCOCC3)c(F)c2)C(=O)N1C | inconclusive [inhibitor, single point] | –
46 | Clc1ccc(OCc2nnc(SCc3nnc(-c4ccccc4)o3)o2)c(Cl)c1 | inactive | –
47 | COc1cc2[nH]c(=S)n(C3CCCC3)c(=O)c2cc1OC | inconclusive [inhibitor, partial curve] | –
48 | O=C(COc1ccccc1[N+](=O)[O-])Nc1ccc(N2CCN(C(=O)c3cccs3)CC2)cc1 | active: 6.31 µM | –
49 | Cc1cccc(NC(=S)NNC(=O)c2ccccc2OC(F)F)c1 | inconclusive [inhibitor, single point] | –
50 | c1ccc(-c2noc(-c3ccc4ccccc4c3)n2)nc1 | inconclusive [inhibitor, single point] | –
51 | Cc1cc(NC(=O)c2ccc(C)s2)n(-c2nc3ccccc3[nH]2)n1 | inconclusive [inhibitor, full curve, poor fit] | –
52 | CCCc1c(C(=O)N/N=C(\C)c2ccc(O)cc2)nnn1-c1nonc1N | inactive | –

Row | Structure (SMILES) | Potency | activity change, negative = inhibition
53 | O=C(C1CCN(S(=O)(=O)c2ccc(Br)s2)CC1)N1CCN(C2CCCCC2)CC1 | inconclusive [inhibitor, single point] | –
54 | O=C(Cc1c(F)cccc1Cl)Nc1ccc(S(=O)(=O)Nc2nccs2)cc1 | inactive | –
55 | c1csc(CNc2ccc3c(c2)OCCO3)c1 | inconclusive [inhibitor, single point] | –
56 | O=C(Nc1ccccc1)Nc1ccc2ncoc2c1 | inactive | –
57 | CC(=O)N1CCc2c(sc3c2c(=O)n(Cc2ccccc2)c(=O)n3CC(=O)NCC2CCCO2)C1 (stereo unspecified) | inactive | –
58 | COc1ccc(CCNCC(O)COc2cccc(Br)c2)cc1 (stereo unspecified) | inactive | –
59 | COc1ccc(C(=O)N/N=C/c2ccc(N(C)c3ccccc3)cc2)cc1 | active: 7.08 µM | –
60 | CN(C)CC/C=C1/c2ccccc2Sc2ccc(Cl)cc21 | active: 14.1 µM | –
61 | CCOC(=O)C1=CN(Cc2cccc(-c3ccc(Cl)nc3)c2)S(=O)(=O)N(C)C1C (stereo unspecified) | inconclusive [inhibitor, partial curve] | –
62 | COc1ccccc1C(=O)NCCNc1ccc([N+](=O)[O-])cc1Cl | inconclusive [inhibitor, partial curve] | –
63 | O=C(c1cn(-c2ccccc2)nc1-c1ccc(Cl)cc1)N1CCOCC1 | inconclusive [inhibitor, single point] | –
64 | O=C(N/N=C/C=C\c1ccccc1[N+](=O)[O-])c1cc(-c2ccc3ccccc3c2)n[nH]1 | inconclusive [inhibitor, full curve, poor fit] | –
65 | CCOC(=O)c1c(Cc2cccc(Cl)c2)c[nH]c1C | inactive | –
66 | CCC(=O)c1ccc(N2CCN(C(=O)c3ccc(Br)cc3)CC2)c(F)c1 | inconclusive [inhibitor, single point] | –
67 | Cc1ccc(-c2nc(CS(=O)CC(=O)NCCCN3CCN(Cc4ccccc4)CC3)c(C)o2)cc1 (stereo unspecified) | active: 10 µM | –
68 | CCOc1ccccc1NC(=O)COC(=O)C(CC)c1ccccc1 (stereo unspecified) | inconclusive [inhibitor, partial curve, poor fit] | –
69 | CCOc1ccc(N2CC(C(=O)Nc3ccccc3N3CCOCC3)CC2=O)cc1 (stereo unspecified) | inactive | –
70 | O=C(/C=C/c1cccc([N+](=O)[O-])c1)OCC(=O)N1CCOCC1 | inactive | –
71 | CCCCc1ccc(NC(=S)NCc2cccs2)cc1 | inactive | –
72 | CCCCOC(=O)Sc1nc2ccccc2o1 | inactive | –
73 | Cn1cnc2c(SCc3ccccc3)ncnc21 | inactive | –
74 | N#CCN(N=Nc1ccccc1)c1ccccc1 | inactive | –
75 | Cc1ccc(SCCSc2ncccn2)cc1 | inconclusive [inhibitor, single point] | –
76 | C=CCOC(=O)C1=C(C)NC(C)=C(C(=O)OCC=C)C1c1ccc(O)cc1 | inconclusive [inhibitor, single point] | –
